{
  "source": "PubChem BioAssay AID485344",
  "about": "(National Center for Advancing Translational Sciences (NCATS), 2010)",
  "note": "The campaign covered roughly 340,000 compounds. About 6,900 (2%) were called active. No stated cut-off is given here; in the data, active means inhibition above about 30%; inactive means below that, where a call was filed. Only a part is listed here, and it is no random draw. Entries without a call were filed so in the source.",
  "data": [
    {"target": "D(2) dopamine receptor (Homo sapiens) (UniProt P14416)", "sequence (P14416 whole entry, looked up)": "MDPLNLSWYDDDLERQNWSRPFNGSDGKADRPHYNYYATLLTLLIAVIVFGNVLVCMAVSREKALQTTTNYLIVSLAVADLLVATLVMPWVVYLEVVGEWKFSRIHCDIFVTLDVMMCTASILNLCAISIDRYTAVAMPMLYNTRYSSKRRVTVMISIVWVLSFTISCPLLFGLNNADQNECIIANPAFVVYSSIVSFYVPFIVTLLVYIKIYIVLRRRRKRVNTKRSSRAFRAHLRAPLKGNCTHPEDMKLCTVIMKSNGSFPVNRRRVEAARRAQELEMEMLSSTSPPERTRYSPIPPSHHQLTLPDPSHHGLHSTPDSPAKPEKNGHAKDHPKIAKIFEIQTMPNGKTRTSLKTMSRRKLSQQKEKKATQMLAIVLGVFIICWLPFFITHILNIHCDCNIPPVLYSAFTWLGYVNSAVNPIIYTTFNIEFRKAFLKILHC", "test": "HTS Assay for Allosteric Antagonists of the Human D2 Dopamine Receptor: Primary Screen for Antagonists; further: 0% is about no effect", "details": "HEK293 TREx D2 cells, calcium flux, dopamine EC80; at 10 µM; stronger effect = higher value", "summary_of_the_method": "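Measurement of antagonist activity uses fluorescent calcium dye in inducible HEK293 T-REx D2 cells: 10 s baseline, compound addition with 180 s read, EC80 dopamine addition with a further 180 s read.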", "values": [
      {"smiles": "O=C1CC(c2ccccc2)Cc2[nH]c(=O)c(-c3nc(-c4ccc(Cl)c(Cl)c4)cs3)cc21", "note": "(centres undefined)", "inhibition": "-14.2%"},
      {"smiles": "Cc1cc(C)c2oc(C(=O)NCCc3ccc(S(N)(=O)=O)cc3)cc(=O)c2c1", "inhibition": "6.5%"},
      {"smiles": "COc1ccc(Cl)cc1NC(=O)C(=O)NCc1ccc(Cl)cc1", "inhibition": "-7.55%"},
      {"smiles": "COCCNS(=O)(=O)c1cc(-c2nn3c(C)nnc3c3ccccc23)ccc1C", "inhibition": "4.06%"},
      {"smiles": "Cc1ccc(NC(=O)N2CCN(C(=O)c3nsc4ccccc34)CC2)cc1C", "inhibition": "6.76%"},
      {"smiles": "COc1ccccc1NC(=O)C(=O)c1cc(C)n(-c2cc(C)cc(C)c2)c1C", "inhibition": "11%"},
      {"smiles": "CCOc1cccc(-c2nc3ccccc3c(=O)o2)c1", "inhibition": "6.5%"},
      {"smiles": "COc1cccc(C(=O)Nc2nc(-c3nnn(-c4cc(C)ccc4C)c3C)ns2)c1", "inhibition": "-0.348%"},
      {"smiles": "O=C1CN(C(=O)c2cccc(Br)c2)C(c2ccccc2)c2cc(Cl)ccc2N1", "note": "(centres undefined)", "inhibition": "-18.6%"},
      {"smiles": "N#Cc1c(-n2ncnc2-c2cccc(Cl)c2)sc2c1CCCCC2", "inhibition": "10.9%"},
      {"smiles": "COC(=O)c1c(-c2ccc(Cl)cc2)noc1N1CCN(c2ccccc2F)CC1", "inhibition": "6.18%"},
      {"smiles": "CCOC(=O)C1=C(CN(CC)Cc2ccccc2)NC(=O)NC1c1ccc(OC)cc1", "note": "(centres undefined)", "inhibition": "-11.5%"},
      {"smiles": "COc1ccc2c(c1)c1c(c(=O)n(-c3ccc(F)c(Cl)c3)c(=O)n1Cc1ccccc1F)n2C", "inhibition": "-12.2%"},
      {"smiles": "CCCCNC(=O)c1ccc2c(c1)NC(=O)C(C(C)C)N2", "note": "(centres undefined)", "inhibition": "-3.86%"},
      {"smiles": "COc1ccc(C(=O)Nc2ccc(-c3nc4ncccc4o3)cc2)cc1", "inhibition": "26.3%"},
      {"smiles": "CC(C)(C)OC(=O)N1CCC(c2c(C(=O)NCc3ccccn3)cnn2-c2ccccc2)CC1", "inhibition": "-0.953%"},
      {"smiles": "COc1ccccc1Nc1nn2c(=O)c3ccc(C(=O)NCc4cccs4)cc3nc2s1", "inhibition": "7.33%"},
      {"smiles": "COC(=O)c1cc(S(=O)(=O)NCC2CCN(Cc3cc(C)ccc3C)CC2)c[nH]1", "inhibition": "5.35%"},
      {"smiles": "COc1ccc(-c2cn3c(n2)sc2cc(C(=O)NCc4ccccc4OC)ccc23)cc1", "inhibition": "17.2%"},
      {"smiles": "Cc1ccc2c(=O)c(C(=O)c3ccc(F)cc3)cn(CC(=O)NCc3ccccc3)c2n1", "inhibition": "-10.8%"},
      {"smiles": "COc1cccc(Cn2c(CNC(=O)C(C)C)nc3cccnc32)c1", "inhibition": "-9.99%"},
      {"smiles": "COc1ccc(OC)c(S(=O)(=O)NCCc2sc(-c3ccc(C)cc3)nc2C)c1", "inhibition": "3.1%"},
      {"smiles": "O=C(Nc1cc(Cl)cc(Cl)c1)c1ccc(F)c(S(=O)(=O)NC2CCCC2)c1", "inhibition": "-5.83%"},
      {"smiles": "Cc1cccc(CN2C(=O)c3ccccc3Sc3ccc(C(=O)N4CCCC4)cc32)c1", "inhibition": "-23.1%"},
      {"smiles": "CCOC(=O)c1c(NC(=O)COc2ccccc2F)sc2c1CCCC2", "inhibition": "-8.77%"},
      {"smiles": "COCCN1C(=O)c2[nH]nc(-c3ccccc3O)c2C1c1ccc(OCc2ccccc2)c(OC)c1", "note": "(centres undefined)", "inhibition": "-24.3%"},
      {"smiles": "CCc1ccc(N(CC)C(=O)c2ccc3c(=O)n4c(nc3c2)CCCCC4)cc1", "inhibition": "-0.668%"},
      {"smiles": "Cc1ccc(S(=O)(=O)c2cnc(SCC(=O)Nc3cc(C)cc(C)c3)nc2N)cc1", "inhibition": "27%"},
      {"smiles": "Cc1cccc(OCc2ccc(-c3nc(C#N)c(NCCN(C)C)o3)o2)c1", "inhibition": "8.56%"},
      {"smiles": "COc1ccc2c(c1)c1c(c(=O)n(-c3ccccc3C)c(=O)n1CC(=O)NCc1ccc(C)cc1)n2C", "inhibition": "12.7%"},
      {"smiles": "Cc1cc(Nc2ccc(C)c(C)c2)n2cnnc2n1", "inhibition": "-4.09%"},
      {"smiles": "CCOC(=O)c1c(C)oc2nc(C)nc(NCc3ccccc3Cl)c12", "inhibition": "-5%"},
      {"smiles": "COC(=O)c1ccccc1NC(=O)Cn1cc(S(=O)(=O)Cc2ccccc2F)c2ccccc21", "inhibition": "-1.5%"},
      {"smiles": "Cc1ccc2cccc(NC(=O)COc3ccccc3[N+](=O)[O-])c2n1", "inhibition": "1.48%"},
      {"smiles": "CCCCc1ccc(-n2nc3cc(C)c(NC(=O)Cc4ccccc4)cc3n2)cc1", "inhibition": "-3.6%"},
      {"smiles": "CCN(CC)c1ccc(NC(=O)CSc2nnc(C)c(=O)[nH]2)cc1", "inhibition": "7.24%"},
      {"smiles": "CCCN(CCC)C(=O)CSc1nnc2cc(C)c3cc(C)cc(C)c3n12", "inhibition": "-0.889%"},
      {"smiles": "COc1cccc(OCCCCn2c(-c3ccc(Cl)cc3)nc3ccccc3c2=O)c1", "inhibition": "-8.35%"},
      {"smiles": "Cc1ccc(-c2onc(C)c2C)cc1S(=O)(=O)NCc1ccco1", "inhibition": "-13.9%"},
      {"smiles": "O=S(=O)(NCCSc1nnnn1-c1ccccc1)c1ccc(F)cc1", "inhibition": "1.42%"},
      {"smiles": "CC(=O)Nc1ccc(S(=O)(=O)NC2(C(F)(F)F)NC(=O)N(c3ccc(C)cc3)C2=O)cc1", "note": "(centres undefined)", "inhibition": "1.18%"},
      {"smiles": "O=C(c1cccc([N+](=O)[O-])c1)N1c2ncnn2C2(CCCCC2)[C@@H]2CCCC[C@@H]21", "inhibition": "10.3%"},
      {"smiles": "Cc1ccc(S(=O)(=O)c2cnc(SCC(=O)Nc3ccc4c(c3)OCCO4)[nH]c2=O)cc1", "inhibition": "-4.93%"},
      {"smiles": "CN(C1CCCCC1)S(=O)(=O)c1ccc2c(c1)c(=O)c(C(=O)NCCc1ccc(Cl)cc1)cn2C", "inhibition": "2%"},
      {"smiles": "CCOC(=O)C1CCN(Cc2cccc(Oc3ccc(Cl)cc3)c2)CC1", "inhibition": "active: 71.7%"},
      {"smiles": "CSCCC(NS(=O)(=O)c1ccc2c(c1)oc(=O)n2C)C(=O)NCCc1ccc(C)cc1", "note": "(centres undefined)", "inhibition": "3.19%"},
      {"smiles": "CCS(=O)(=O)N1CCC(C(=O)NCCC(C)C)CC1", "inhibition": "-11.7%"},
      {"smiles": "O=S(=O)(Cc1ccccc1)N1CCN(C2Cc3ccccc3C2)CC1", "inhibition": "active: 30.3%"},
      {"smiles": "Cc1ccc(-c2nnc(Nc3cccc(Cl)c3)c3ccccc23)cc1S(=O)(=O)NCC1CCCO1", "note": "(centres undefined)", "inhibition": "8.44%"}
    ]}
  ]
}
